Laboratory results as given in PubChem BioAssay AID463173 (ICCB-Longwood Screening Facility, Harvard Medical School, 2010).
In all, about 52,000 compounds went through this assay and about 4,300 (8.3%) were called active. Cut-off read from the data, not from the text of the source: active = survival mostly below about 52% (no sharp cut-off); inactive = mostly above about 56%. Some of the results follow.

tested on: DeltatarO mutant; assay: S. aureus survival, RN4220 and DeltatarO strains – OD600, teichoic acid synthesis inhibitors, primary screen (AID 463173); details: S. aureus RN4220 wild type/DeltatarO growth, OD600, 18 h, stronger effect = lower value, screened at 18.75 µg/mL (by protocol)

Row | SMILES | survival
1 | CCc1nonc1NC(=O)c1oc2ccc(Br)cc2c1C | inactive: 77%
2 | CCc1ccc(-n2c(=O)c3c4c(sc3n(CC(=O)N3CCC(C)CC3)c2=O)CCC4)cc1 | inactive: 83%
3 | COC(=O)CN(C#N)c1nc(SC)nc(N(C)C)n1 | active: 52%
4 | Cc1ccc(Cl)cc1NC(=O)c1oc2ccc(S(=O)(=O)N3CCCCC3)cc2c1C | inactive: 74%
5 | Cc1oc2ncnc(N3CCCCC3)c2c1C(=O)N1CCN(c2cccc(Cl)c2)CC1 | inactive: 94%
6 | CCCN1C(=O)C2(c3ccccc31)c1c(oc3ccc(F)cc3c1=O)C(=O)N2CCCOC(C)C (stereo not given) | inactive: 93%
7 | c1coc(-c2nc3n(n2)C2(CCCCC2)[C@@H]2CCCC[C@@H]2N3)c1 | inactive: 89%
8 | CC(C)(C)n1nnnc1C(c1cccs1)N1CCCc2ccccc21 (stereo not given) | inactive: 83%
9 | CN(C(=O)CSc1nnc(-c2ccccc2F)o1)C1CCCCC1 | inactive: 58%
10 | Oc1ccc(CNc2ccccc2Cl)c2cccnc12 | inactive: 115%
11 | Cc1ccc2c(c1)c(=O)c(C(=O)c1ccc3c(c1)OCO3)cn2Cc1ccc(Cl)cc1 | active: 46%
12 | CCOc1ccc(CN(C(=O)c2cc(=O)c3cc(C)cc(C)c3o2)C2CCS(=O)(=O)C2)cc1 (stereo not given) | inactive: 56%
13 | COc1cc(NC(=O)CCc2c(C)nc3cc(-c4ccccc4)nn3c2C)cc(OC)c1OC | inactive: 65%
14 | O=C1CSC(=S)N1Nc1ccccc1 | inactive: 80%
15 | CCC(CC)C(=O)Nc1nnc(SCc2cc(=O)n3cccc(C)c3n2)s1 | inactive: 80%
16 | CSc1ccc(/C=C/c2nc3ccccc3n2S(=O)(=O)c2cccc(Cl)c2)cc1 | inactive: 72%
17 | O=C(NCCc1ccc(Cl)cc1)C(=O)NCC(c1ccco1)S(=O)(=O)c1ccc(Cl)cc1 (stereo not given) | inactive: 94%
18 | CCOc1ccc(CN2C(=O)c3ccccc3Sc3ccc(C(=O)O)cc32)cc1 | inactive: 77%
19 | Cc1ccc(CCNC(=O)c2ccc3c(c2)N(Cc2cccc(Cl)c2)C(=O)c2ccccc2S3(=O)=O)cc1 | inactive: 105%
20 | O=C(Nc1cccc(C(F)(F)F)c1)C1CCCN1S(=O)(=O)c1cccc2nsnc12 (stereo not given) | inactive: 78%
21 | Cc1cc(C)cc(OC(C)C(=O)Nc2c(C(=O)c3ccccc3)oc3ccccc23)c1 (stereo not given) | active: 17%
22 | CSc1ccc(C2c3c(oc4cc(C)cc(C)c4c3=O)C(=O)N2Cc2ccco2)cc1 (stereo not given) | inactive: 57%
23 | CCCN(CCC)S(=O)(=O)c1ccc(C(=O)Nc2sc3c(c2C(=O)OC)CCN(CC)C3)cc1 | inactive: 82%

Row | SMILES | survival
24 | CCN(C(=O)CSc1nc(-c2ccc(C(C)C)cc2)no1)c1cccc(C)c1 | inactive: 84%
25 | Cc1ccc(-n2c(-c3ccco3)nc3c(cnn3-c3ccccc3Cl)c2=O)cc1 | inactive: 128%
26 | Cc1cccc(C(=O)Nc2nnc(S(=O)(=O)N(C)c3ccccc3C)s2)c1 | active: 32%
27 | COc1ccc(CNC(=O)CCCn2nc(C)c3c(C)n(-c4ccccc4)nc3c2=O)cc1 | inactive: 89%
28 | COc1ccc(OC)c(NS(=O)(=O)c2ccc(-c3cc(C)no3)s2)c1 | inactive: 88%
29 | COc1ccc(CCNS(=O)(=O)c2cc(-c3cc(C)no3)ccc2C)cc1OC | inactive: 88%
30 | Cc1ccc(Cl)cc1Nc1nn2c(=O)c3ccc(C(=O)N4CCCC(C)C4)cc3nc2s1 (stereo not given) | inactive: 73%
31 | CC(C)c1cnc2c(c1SCC(=O)Nc1cccc(F)c1)c(=O)n(C)c(=O)n2C | inactive: 81%
32 | O=C(c1cc2ccccc2oc1=O)N(Cc1ccc(F)cc1)Cc1ccco1 | active: 41%
33 | CCc1ccc(CN2CCc3nc(N4CCN(CC)CC4)ncc3C2)cc1 | inactive: 70%
34 | CN(C)c1ccc(CNC(=O)CCn2cccn2)cc1 | inactive: 93%
35 | CCOC(=O)c1cc(OC(=O)c2ccccc2C)n(-c2ccccc2)n1 | inactive: 87%
36 | COCCCNC(=O)C1CCN(c2nc3ccc(C)cc3[nH]2)CC1 | inactive: 95%
37 | COc1cccc(N2CCN(C(=O)CCS(=O)(=O)c3ccc4c(c3)oc(=O)n4C)CC2)c1 | inactive: 88%
38 | Cc1ccc(S(=O)(=O)N2CCC(C(=O)Nc3ccc(C)c(Cl)c3)CC2)cc1 | inactive: 124%
39 | CCc1ccc(-c2csc(Nc3ncccn3)n2)cc1 | inactive: 87%
40 | CCOC(=O)c1c(C)[nH]c(C)c1S(=O)(=O)N1CCN(c2cccc(C(F)(F)F)c2)CC1 | inactive: 128%
41 | CCN(CC)C(=O)Cn1c(=O)n(-c2ccc(Cl)cc2)c(=O)c2c3c(sc21)CCC3 | inactive: 82%
42 | COc1ccc(CCNC(=O)C(=O)NCC(c2cccs2)S(=O)(=O)c2ccc(C)cc2)cc1 (stereo not given) | inactive: 69%
43 | O=C1c2[nH]nc(-c3ccccc3O)c2C(c2cccc(OCc3ccccc3)c2)N1CCO (stereo not given) | inactive: 67%
44 | COc1ccc(C(=O)COC(=O)C(Cc2c[nH]c3ccccc23)NC(=O)c2ccc(C(C)(C)C)cc2)cc1 (stereo not given) | inactive: 92%
45 | Cc1cn2c(=O)cc(COC(=O)c3cccc(NC(=O)c4ccccc4C)c3)nc2s1 | inactive: 81%
46 | COc1ccc(-n2nc(C)c3c(C(F)(F)F)cc(-c4cccnc4)nc32)cc1 | inactive: 56%

Row | SMILES | survival
47 | CCCSc1nc2c([nH]c3ccccc32)c(=O)n1C | inactive: 85%
48 | CN1CCN(C(=O)/C=C/c2ccccc2)CC1 | inactive: 77%
49 | CCc1ccc(NS(=O)(=O)c2ccc3[nH]cc(C(=O)NCCCOC(C)C)c(=O)c3c2)cc1 | inactive: 83%
50 | COc1ccccc1CNC(=O)CSC1=Nc2ccccc2N=C(c2ccc(F)cc2)C1 | inactive: 101%
51 | Cc1ccc(Cl)cc1N1CCN(S(=O)(=O)c2ccc3c(c2)CCN3C(=O)C2CCC2)CC1 | inactive: 78%
52 | CC(C)c1nc2ccc(C(=O)Nc3ccccc3F)cc2o1 | inactive: 87%
53 | Cc1cc(NC(=O)c2cccc(F)c2)ccc1NC(=O)c1ccco1 | inactive: 114%
54 | N=c1c2c(-c3ccccc3)c(-c3ccccc3)n(Cc3ccco3)c2ncn1CCO | inactive: 136%
55 | CCN(Cc1ccccc1)C(=O)c1cnn(-c2ccc(F)cc2)c1-n1cccc1 | inactive: 79%
56 | Cc1ccc(NC(=O)c2cnn3c2NC(c2ccccc2)=CC3c2ccccc2)cc1 (stereo not given) | inactive: 98%
57 | CCCn1c2ccccc2c2nnc(SCC(=O)Nc3cccc(C(C)=O)c3)nc21 | inactive: 83%
58 | COc1ccccc1OC(C)C(=O)Nc1cccc(-c2nc3ccccc3o2)c1 (stereo not given) | active: 18%
59 | CC(=O)c1ccc(NC(=O)Cn2nc(N3CCN(c4ccccc4)CC3)ccc2=O)cc1 | inactive: 79%
60 | CC(=O)c1sc(N2C(=O)c3oc4ccccc4c(=O)c3C2c2ccc(C)cc2)nc1C (stereo not given) | inactive: 90%
61 | CCNc1nc(NC(N)=S)nc(NC(C)(C)C)n1 | inactive: 94%
62 | COc1ccc(-c2nc3c(c(SCC(=O)N4CCCCC4)n2)Cc2cc(Cl)ccc2O3)cc1 | inactive: 95%
63 | Cc1[nH]c(=O)[nH]c(=O)c1/C=N\NC(=O)c1cc2ccccc2o1 | inactive: 79%
64 | Cc1ccc(NC(=O)Cc2coc3ccc(C(C)C)cc23)cc1Cl | active: 37%
65 | CN(C)c1ccc(CNC(=O)Cn2c(=O)oc3cc(S(=O)(=O)N4CCCCCC4)ccc32)cc1 | inactive: 74%
66 | Cc1ccc(-n2ncc(C(=O)N3CCCCC3)c2C2CCN(C(=O)OC(C)(C)C)CC2)c(C)c1 | inactive: 102%
67 | CCCS(=O)(=O)c1nc(S(=O)(=O)c2ccc(C)cc2)c(NC)s1 | inactive: 89%
68 | COc1ccc(-n2c(=O)[nH]c3cc(C(=O)NCCc4ccccc4)ccc3c2=O)cc1OC | inactive: 94%
69 | CCOC(=O)c1c(NC(=O)c2ccc(OC)cc2)sc2c1CCCCC2 | active: 2%

Row | SMILES | survival
70 | O=C(COc1ccccc1)Nc1ccc2nc(SCC(=O)N3CCOCC3)sc2c1 | inactive: 73%
71 | COc1ccc(NC(=O)c2oc3ccccc3c2NC(=O)COc2ccc(C(C)C)cc2)c(OC)c1 | inactive: 88%
72 | O=C(Nc1ccccc1Cl)c1sc2cccc(Cl)c2c1Cl | inactive: 63%
73 | Cn1cnnc1SCc1nc2ccccc2[nH]1 | inactive: 96%
74 | COc1cccc(NC(=O)Cn2c(=O)n(Cc3ccccc3)c(=O)c3ccccc32)c1 | inactive: 125%
75 | Cc1ccc(N(CC(=O)Nc2ccc(Cl)cc2)S(=O)(=O)c2cccc3nonc23)cc1 | inactive: 92%
76 | Nc1nc(=S)[nH]c2c1C1(CCCC1)Cc1ccccc1-2 | inactive: 99%
77 | CN1C(C(=O)Nc2ccc(OC(F)(F)F)cc2)=CC(c2cccs2)=NS1(=O)=O | active: 31%
78 | Cc1ccc(S(=O)(=O)N2C(=O)CCC2C(=O)NCc2ccco2)cc1 (stereo not given) | inactive: 77%
79 | O=C(Nc1ccccc1)C(Cc1cccs1)c1nn[nH]n1 (stereo not given) | inactive: 95%
80 | CCn1cc(C(=O)NCc2ccc(Cl)cc2)c(=O)c2cc(S(=O)(=O)N(C)C3CCCCC3)ccc21 | inactive: 70%
81 | CCOC(=O)C1=C(CN2CCN(c3cccc(Cl)c3)CC2)NC(=O)NC1c1ccc(Cl)cc1 (stereo not given) | inactive: 69%
82 | CC(C)(C)c1ccc(OCc2nnc(-c3ccccc3)o2)cc1 | inactive: 49%
83 | COc1ccccc1NC(=O)N1CCN(Cc2ccccc2)CC1 | inactive: 87%
84 | Cc1ccc(CSc2nnc3[nH]c(=O)cc(-c4ccccc4)n23)cc1 | inactive: 78%
85 | O=C(CSc1nnc(-c2ccc(F)cc2)o1)N1CCCc2ccccc21 | inactive: 72%
86 | COc1cc(OC)c(NS(=O)(=O)c2ccc3oc(=O)c4ncn(C)c4c3c2)cc1Cl | inactive: 118%
87 | COc1ccc(N2CCN(CCCNC(=O)Nc3ccccc3)CC2)cc1 | inactive: 102%
88 | COc1ccc(C2C=C(c3ccc(Cl)c(Cl)c3)Nc3ncnn32)cc1 (stereo not given) | active: 6%
89 | C/C(=N/NC(=O)CC1N=C(Cc2ccccc2)NNC1=O)c1ccco1 (stereo not given) | inactive: 82%
90 | O=C(CCC1N=C2c3ccccc3N=C(SCc3ccc(Cl)cc3)N2C1=O)N1CCN(c2ccccc2)CC1 (stereo not given) | inactive: 91%
